Measurements as given in ChEMBL document CHEMBL5308541, “MAIP: An Open-Source Tool to Enrich High-Throughput Screening Output and Identify Novel, Druglike Molecules with Antimalarial Activity” (ACS Med Chem Lett, 2023).
Hit rate of the full screen: of about 150,000 compounds, about 540 (0.36%) showed an effect of 50% or more. Some of the results follow.

tested on: Plasmodium falciparum; test: Primary screen in NF54 nanoGlo assay, in single point, at 2uM, 72h; a lower Z score goes with more inhibition; format: functional, Erythrocyte; settings: timepoint 72 hour

Row | SMILES | % Inhibition [%] | Z score
1 | OC1CCN(c2ccnc(NCC[C@H](c3ccc(F)cc3)c3ccco3)n2)CC1 | -1 | 0.14
2 | CN1CCCN(C(=O)c2ccc(-c3ccc(N)nc3)cc2)CC12CCNCC2 | -7 | 1.07
3 | Clc1ccc2cc(CNCCCN3CCOCC3)c(OCCOc3ccccc3)nc2c1 | -13 | 2.31
4 | Cc1cc2cc(C(=O)N(C)Cc3c(C)nc4ccccn34)ccc2o1 | -12 | 2.03
5 | Fc1cnc(NCCOc2cccc3cccnc23)nc1N1CCOCC1 | -13 | 2.73
6 | Cc1nccn1-c1cncc(NC[C@H](C)CN2CCCC2)n1 | -5 | 1.14
7 | OC1CCN(CCCNCc2cc3ccccc3nc2N2CCCCC2)CC1 | 8 | -1.45
8 | COCC(C)(C)N(Cc1ccccc1)C(=O)CCCNC(=O)OC | -1 | 0.22
9 | CC(C)COc1cccc(CN2CC[C@H](Nc3ncccn3)C2)c1 | -8 | 1.24
10 | Cn1ncc2c(N)nc(N3CC[C@H](Oc4cccc(F)c4)C3)nc21 | 2 | -0.41
11 | Cc1nc2c(c(NCC3CCN(C4CCN(C)CC4)CC3)n1)CCNC2 | -10 | 1.9
12 | OCc1cc2c(cc1-c1cnn(C3CCNCC3)c1)OCCO2 | 1 | -0.12
13 | c1nc(NC[C@H]2CNCCCO2)cc(N2CCCC2)n1 | -7 | 1.16
14 | CS(=O)(=O)c1ccc(-c2nnc(NCc3cccc(OC4CCCC4)c3)o2)cc1 | -21 | 3.57
15 | Clc1ccc(N2CC[C@H](Nc3cc(N4CCOCC4)ncn3)C2)cc1 | -6 | 1.22
16 | CN(C)Cc1cccc(CCNCc2csc(-c3ccc(C(F)(F)F)cc3)n2)c1 | 51 | -11.09
17 | CCOC(=O)N1CCC(Nc2c(NCCN3CCN(Cc4ccccc4)CC3)c(=O)c2=O)CC1 | -11 | 1.87
18 | CN1CCN(C2(CNc3ncnc4c3CCNCC4)CCCC2)CC1 | 3 | -0.44
19 | CC(C(=O)Nc1cccc(F)c1)N1CCN(CC2CCCN(C(=O)OC(C)(C)C)C2)CC1 (stereo unspecified) | -7 | 1.41
20 | CCN1CCN(C(=O)C2CCN(c3nc4ccc(-c5ccsc5)nc4s3)CC2)CC1 | -2 | 0.4
21 | Cn1cc([C@H]2[C@H](CNc3nc(N)c4ccccc4n3)CC(=O)N2C(C)(C)C)cn1 | -9 | 2.02

Row | SMILES | % Inhibition [%] | Z score
22 | Cc1nsc(NCC(C)(C)NC(=O)OC(C)(C)C)n1 | -7 | 1.37
23 | Cc1cccc(-c2[nH]ncc2CN[C@H]2CCCN(c3cc(N4CCOCC4)ncn3)C2)c1 | -1 | 0.09
24 | CC(C)/C=C1/CCCc2c1nc1ccccc1c2O | 0 | 0.04
25 | CC1(C)CC(NCc2cc(O)c3cc(C(N)=O)ccc3n2)CC(C)(C)N1 | -2 | 0.3
26 | NC(=O)CNC(=O)c1ccc2c(c1)NC(=O)NC2 | -6 | 1.32
27 | C[C@H]1CCCCN1C1CN(C(=O)c2cnc(Nc3ccccc3)nc2)C1 | -1 | 0.21
28 | Cc1ccc2c(-c3ccccc3CN3CCNCC3)cccc2n1 | 36 | -7.14
29 | CC1CCC2c3c(c4ccccc4n3Cc3ccccc3)CCN2C1 (stereo unspecified) | -10 | 1.64
30 | COc1ccc(N(C)S(=O)(=O)CC2CN(S(C)(=O)=O)C2)cn1 | 1 | -0.22
31 | CN1CCN(Cc2ccc(C(=O)N3CCC(N4CCC(O)CC4)CC3)o2)CC1 | -13 | 2.26
32 | N[C@H]1CCCN(Cc2ccc(OCCN3CCOCC3)cc2)CC1 | 2 | -0.32
33 | Cc1cc(C)n(-c2ccc(CCC(=O)N3CCN(c4nsc5ccccc45)CC3)cc2)n1 | 3 | -0.58
34 | CN1CCCN(CC(=O)N2CCC(Oc3ccncc3)CC2)CC1 | -2 | 0.39
35 | OC1(CCNc2ncnc3[nH]ncc23)CCN(c2ccccc2)CC1 | -10 | 2.07
36 | Cc1noc(-c2ccnc(NC[C@H]3CCN(CC(F)(F)F)C3)c2)n1 | 2 | -0.25
37 | CCc1nc2n(n1)CC(NC(=O)N1CCOC(C)(CC)C1)CC2 (stereo unspecified) | -2 | 0.48
38 | CN1CCC(N2CCC(CN(CCCn3cccn3)Cc3ccncc3)CC2)CC1 | -6 | 0.97
39 | CCc1ccc2ncnc(NCCCN3CCN(CCO)CC3)c2c1 | 65 | -12.99
40 | Cc1[nH]c2c(F)cc(F)cc2c1CCNc1cc([C@H]2C[C@@H](N)C2)nc(N)n1 | 18 | -3.29
41 | O=C(Nc1nn[nH]n1)c1cnc2ccc(OC(F)(F)F)cc2c1O | -1 | 0.26
42 | CCc1nc2c(N(C)Cc3cccc4ncccc34)ncnc2o1 | -10 | 1.66

Row | SMILES | % Inhibition [%] | Z score
43 | COc1ccccc1-c1nc2cc(Cl)ccc2cc1CN1CCC[C@@H]1CO | -1 | 0.26
44 | C[C@@H](c1nc(-c2cccs2)no1)N1CCN(Cc2ccc3c[nH]nc3c2)CC1 | 1 | -0.21
45 | CCN1CCN(C[C@@H](C)CNc2c(C#N)cnc3ccccc23)CC1 | 6 | -1.22
46 | O[C@H]1CCCN(c2ccnc(NCc3c[nH]nc3-c3cccs3)n2)C1 | 7 | -1.02
47 | O=C(NCc1ccc(OCCN2CCCC2)cc1)c1ccncc1F | -6 | 1.05
48 | Cn1cncc1[C@@H]1CNC[C@H]1CNC(=O)c1ccccc1NC1CCCCC1 | 75 | -14.83
49 | C[C@@H](C(=O)Nc1ccc2[nH]c(-c3ccco3)nc2c1)S(C)(=O)=O | -6 | 1.16
50 | Nc1cc(N2CCC(N3CCc4ccccc4C3)CC2)nc(N2CCOCC2)n1 | 5 | -0.91
51 | Clc1cc(Nc2c3ccccc3nc3ccccc23)ccc1Oc1ccc2ccccc2c1Cl | -10 | 1.68
52 | CN1CCN(C2(CNCc3cn(C)nc3-c3ccccc3F)CCCCC2)CC1 | 8 | -1.63
53 | Cc1cc(CCNC(=O)N2CC[C@H](O)CC(C)(C)C2)ccc1Cl | -9 | 1.55
54 | Nc1nccc(NC2COCC2N2CCOCC2)n1 (stereo unspecified) | -2 | 0.5
55 | O=C(NCCN1CCCC1)c1ccc(-c2ccc(C(F)(F)F)nc2)cc1 | 5 | -0.82
56 | O=C(NC1CCN(CC(F)F)CC1)[C@@H]1CCCN1C1CCOCC1 | -2 | 0.3
57 | c1cc(OC23CCCN(CC2)C3)ccc1CN1CCC(N2CCOCC2)CC1 (stereo unspecified) | -2 | 0.23
58 | CC(C)(C)c1cn2nc(NCCNc3ccc4ccccc4n3)sc2n1 | 6 | -0.98
59 | CN1CCN(c2cc(N3CCC4(O)CCNCC4C3)nc(N)n2)CC1 (stereo unspecified) | 3 | -0.73
60 | Fc1ccc2c(CCNCc3cnn(-c4ccccc4)c3)c[nH]c2c1 | -3 | 0.71
61 | Cc1nc(NCC2(CN3CCN(C)CC3)CC2)nc2c1CCCC2 | -14 | 2.49
62 | COc1ccc(-c2cccc(C(=O)NCC3CCNCC3)c2)c2cccnc12 | 21 | -3.55
63 | CN1C(=O)[C@H]2CN(C[C@@H]3CCCN4CCCC[C@H]34)C[C@H]2C1=O | -4 | 0.88

Row | SMILES | % Inhibition [%] | Z score
64 | CCN(CC)S(=O)(=O)CCNC1C2CCCOC2C1(C)C (stereo unspecified) | 1 | -0.2
65 | Cn1ccnc(Nc2ccc(Oc3ccc(CO)cc3)cc2)c1=O | 13 | -2.24
66 | O=C1C[C@H](Nc2nccc(-c3ccccn3)n2)CN1Cc1ccccc1 | -9 | 1.55
67 | CCCC1CC(C(=O)NCc2nc3cccnc3[nH]2)CCO1 (stereo unspecified) | 4 | -0.76
68 | CC(C)(C)OC(=O)N1CC[C@@H]1CNc1cccc(-n2cnc3ccccc32)n1 | -13 | 2.89
69 | CCN1CCC[C@@H]1CNC1CCN(c2ccc(NC(=O)c3cccc(Cl)c3)cc2)CC1 | 0 | -0.02
70 | N#Cc1cccc(Cl)c1N1CCC(N2CCCC2)CC1 | 26 | -5.52
71 | CCN(CC(=O)Nc1cccc(NC(C)=O)c1)Cc1ccc2[nH]ccc2c1 | -5 | 1.07
72 | COc1ccc2nc3c(c(NC4CCOC5(CCOC5)C4)c2c1)CCCC3 (stereo unspecified) | -10 | 1.84
73 | O=C(c1ccnc(N2CCC(N3CCC(O)CC3)CC2)c1)N1CCCCC1 | 6 | -1.14
74 | O=C(NCc1cccc(-c2nc(-c3ccncc3)no2)c1)c1ccnc(OC2CCC2)c1 | -12 | 2.18
75 | c1ccc(-c2ncc(CN3CC4CCC(C3)N(CC3CCC3)C4)cn2)nc1 (stereo unspecified) | -8 | 1.45
76 | O=C(O)c1cccc(Nc2ncc(F)c(Nc3ccc(O)cc3)n2)c1 | -5 | 0.77
77 | Cc1ccc2[nH]cc(-c3cc(N4CCCCC4)ncn3)c2c1 | 11 | -2.17
78 | O=C(c1ccnc2ccccc12)N1CCCN(C[C@H]2COc3ccccc3O2)CC1 | -4 | 0.66
79 | CC1CCCCN1CCCNC(=O)CC(c1ccc2c(c1)OCO2)c1c[nH]c2ccccc12 (stereo unspecified) | 1 | -0.19
80 | CC1CCNCCC1NC1CC(=O)N(CCN2CCOCC2)C1 (stereo unspecified) | 7 | -1.5
81 | OC[C@H](Cc1ccc(O)cc1)NCc1csc(-c2ccc(F)cc2)n1 | 7 | -1.55
82 | CCOc1ccc2nc(N3CCC(N4CCC([C@H](O)c5cccnc5)CC4)CC3)nc(C)c2c1 | 27 | -4.8
83 | COC1(CNS(=O)(=O)c2c(C)cnn2C)CCCCCC1 | -7 | 1.11
